# Measured values reported in PubChem BioAssay (Tox21).
# “And” between values parts separate entries of the source, which are not always exact repeats. Equal values may be shown once. Inconclusive results, whose numbers are uncertain, are shown with a selection of clear calls. For some assays here: Potencies beside an inconclusive call are fits to weak or partial responses and may not hold up. Some compounds were tested as several samples or in several runs, with calls that do not always agree. The source made the active and inactive calls. Unless noted, calls come from the whole dose curve; as a rule, active = well fitted curve in the direction sought with a large enough effect in the repeat runs; inconclusive = weak or mixed curves; inactive = no such curve, though single readings can be large; an effect the other way counts as inactive or inconclusive.
# Assays:
# [1] = qHTS assay to identify small molecule antagonists of the androgen receptor (AR) signaling pathway - cell viability counter screen (AID 743033; note: nearly all actives have a fitted effect of over 45% in size); details: AR-bla HEK293 viability, CellTiter-Glo luminescence, 16 h; activity change, negative = cytotoxicity: at 58.5 µM (top of the series) unless noted
# [2] = qHTS assay to identify small molecule antagonists of the thyroid receptor (TR) signaling pathway - cell viability counter screen (AID 743064); details: GH3.TRE-Luc viability, CellTiter-Fluor, 24 h; activity change, negative = cytotoxic: at 70.3 µM (top of the series) unless noted; note: nearly all actives have a fitted effect of over 50% in size; for activity change, negative = cytotoxic: % is set by controls: 0 for no effect and ±100 for the full control effect
# In short: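 Viability of T3-stimulated (1 nM final) GH3.TRE-Luc cells is measured by CellTiter-Fluor fluorescence after 23.5 h compound exposure at 37 °C plus 30 min reagent incubation.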
# [3] = target: Estrogen receptor (Homo sapiens) (UniProt P03372); assay: qHTS assay to identify small molecule antagonists of the estrogen receptor alpha (ER-alpha) signaling pathway (AID 743069; active = well fitted curve in the direction sought with a large enough effect in the signal ratio in the repeat runs, not every such curve was filed as active; inconclusive = weak or mixed curves, or effect the other way; inactive = no such curve, though single readings can be large or run the other way; the % refers to the signal ratio; for activity, negative = inhibition: % is set by controls: 0 for no effect and ±100 for the full control effect); details: HEK293 ER-alpha-UAS-bla, beta-lactamase ratio, antagonist mode; activity, negative = inhibition: at 69.4 µM (top of the series) unless noted
# In short: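 Fluorescence intensity from a beta-lactamase FRET substrate served as the read-out. Cells: HEK293 with stably integrated ER-alpha-UAS-bla reporter. Agonist 17beta-estradiol was co-added with compounds; incubation 18 hr at 37C, substrate 2 hr at room temperature.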
# [4] = target: Estrogen receptor (Homo sapiens) (UniProt P03372); assay: qHTS assay to identify small molecule agonists of the estrogen receptor alpha (ER-alpha) signaling pathway (AID 743075; calls by dose curve)
# [5] = target: Estrogen receptor (Homo sapiens) (UniProt P03372); assay: qHTS assay to identify small molecule agonists of the estrogen receptor alpha (ER-alpha) signaling pathway using the BG1 cell line (AID 743079); details: BG1Luc4E2 cells, ERE-luciferase agonist, 22 h; note: nearly all actives have a fitted effect of over 20% in size; for activation: % is set by controls: 0 for no effect and ±100 for the full control effect
# [6] = qHTS assay to identify small molecule antagonists of the estrogen receptor alpha (ER-alpha) signaling pathway using the BG1 cell line (AID 743080; calls by dose curve; note: nearly all actives have a fitted effect of over 25% in size; for activity change, negative = inhibition: % is set by controls: 0 for no effect and ±100 for the full control effect); details: BG1Luc4E2 ERE-luciferase antagonist mode, luminescence; activity change, negative = inhibition: at 70.3 µM (top of the series) unless noted
# In short: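 Antagonist mode: compounds in DMSO were pinned onto BG1-Luc-4E2 cells alongside 17beta-estradiol agonist, incubated 21.5 h, and ERE-driven luciferase measured with ONE-Glo. Cytotoxicity was multiplexed using CellTiter-Fluor fluorescence.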
# [7] = qHTS assay to identify small molecule antagonists of the thyroid receptor (TR) signaling pathway (AID 743065); note: nearly all actives have a fitted effect of over 55% in size
# In short: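 Antagonism measured as loss of luciferase signal in GH3 cells stably carrying a TRE-luciferase reporter, co-treated with compound and T3 (1 nM final) for 23.5 h at 37 C. Viability was read in the same well by CellTiter-Fluor.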
# [8] = target: Peroxisome proliferator-activated receptor gamma (Homo sapiens) (UniProt P37231); assay: qHTS assay to identify small molecule agonists of the peroxisome proliferator-activated receptor gamma (PPARg) signaling pathway (AID 743094; active = well fitted activation curve with a large enough effect in the signal ratio in the repeat runs, not every such curve was filed as active; inconclusive = weak or mixed curves, or effect the other way; inactive = no such curve, though single readings can be large or run the other way; the % refers to the signal ratio); details: HEK293H PPARg-UAS-bla, beta-lactamase FRET ratio, 17 h
# In short: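 Reporter activation was scored by fluorescence of cleaved LiveBLAzer B/G substrate (1 h, room temperature) in PPARg-bla HEK293H cells previously treated 17 h at 37C with DMSO-dissolved compounds.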
# [9] = test system: thyroid hormone receptor (rat, GH3 cells); assay: qHTS assay to identify small molecule agonists of the thyroid receptor (TR) signaling pathway (AID 743066; calls by dose curve); details: GH3.TRE-Luc cells, TR agonist luciferase, 24 h; activation: at 83.9 µM (top of the series) unless noted
# [10] = qHTS assay to identify small molecule antagonists of the estrogen receptor alpha (ER-alpha) signaling pathway - cell viability counter screen (AID 743074; calls by dose curve; note: nearly all actives have a fitted effect of over 45% in size)
# [11] = qHTS assay to identify small molecule antagonists of the estrogen receptor alpha (ER-alpha) signaling pathway using the BG1 cell line - cell viability counter screen (AID 743081); details: BG1Luc4E2 viability, CellTiter-Fluor, 22 h; activity change, negative = cytotoxicity: at 70.3 µM (top of the series);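 note: compound given together with 17beta-estradiol as the ER stimulus; nearly all actives have a fitted effect of over 45% in size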
# Aromatase (Homo sapiens) = Aromatase (Homo sapiens) (UniProt P11511); assay: qHTS assay to identify aromatase inhibitors (AID 743083); details: MCF-7 aro ERE, testosterone-driven ERE luciferase, 24 h; activity, negative = inhibition: at 70.3 µM (top of the series); note: nearly all actives have a fitted effect of over 55% in size
# [12] = qHTS assay to identify aromatase inhibitors - cell viability counter screen (AID 743084); details: MCF-7 aro ERE viability, CellTiter-Fluor, 24 h; activity change, negative = cytotoxicity: at 70.3 µM (top of the series) unless noted;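 note: cells stimulated with testosterone during compound exposure; nearly all actives have a fitted effect of over 55% in size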
# [13] = target: Aryl hydrocarbon receptor (Homo sapiens) (UniProt P35869); assay: qHTS assay to identify small molecule that activate the aryl hydrocarbon receptor (AhR) signaling pathway (AID 743085); note: nearly all actives have a fitted effect of over 15% in size
# In short: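 A multiplexed format paired cell viability (CellTiter-Fluor fluorescence) with AhR-dependent luciferase output (ONE-Glo luminescence) in the same wells of HepG2 DRE-luc cells after 24 h compound exposure at 37C.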
# [14] = qHTS assay to identify small molecule that activate the aryl hydrocarbon receptor (AhR) signaling pathway - cell viability counter screen (AID 743086); note: nearly all actives have a fitted effect of over 45% in size
# In short: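 Cytotoxicity counter screen: CellTiter-Fluor signal (30 min, 37 C) in 4000 HepG2 cells/well carrying the DRE-luciferase reporter, following 24 h compound exposure at 37 C.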
# [15] = activation: at 70.3 µM (top of the series) unless noted
# [16] = activation: at 57 µM (top of the series) unless noted
# Potency is the fitted concentration of half-maximal effect; tags give direction and shape of the fitted curve or compound fluorescence and quenching.
# Sequence of UniProt P35869 (P35869 whole entry, looked up): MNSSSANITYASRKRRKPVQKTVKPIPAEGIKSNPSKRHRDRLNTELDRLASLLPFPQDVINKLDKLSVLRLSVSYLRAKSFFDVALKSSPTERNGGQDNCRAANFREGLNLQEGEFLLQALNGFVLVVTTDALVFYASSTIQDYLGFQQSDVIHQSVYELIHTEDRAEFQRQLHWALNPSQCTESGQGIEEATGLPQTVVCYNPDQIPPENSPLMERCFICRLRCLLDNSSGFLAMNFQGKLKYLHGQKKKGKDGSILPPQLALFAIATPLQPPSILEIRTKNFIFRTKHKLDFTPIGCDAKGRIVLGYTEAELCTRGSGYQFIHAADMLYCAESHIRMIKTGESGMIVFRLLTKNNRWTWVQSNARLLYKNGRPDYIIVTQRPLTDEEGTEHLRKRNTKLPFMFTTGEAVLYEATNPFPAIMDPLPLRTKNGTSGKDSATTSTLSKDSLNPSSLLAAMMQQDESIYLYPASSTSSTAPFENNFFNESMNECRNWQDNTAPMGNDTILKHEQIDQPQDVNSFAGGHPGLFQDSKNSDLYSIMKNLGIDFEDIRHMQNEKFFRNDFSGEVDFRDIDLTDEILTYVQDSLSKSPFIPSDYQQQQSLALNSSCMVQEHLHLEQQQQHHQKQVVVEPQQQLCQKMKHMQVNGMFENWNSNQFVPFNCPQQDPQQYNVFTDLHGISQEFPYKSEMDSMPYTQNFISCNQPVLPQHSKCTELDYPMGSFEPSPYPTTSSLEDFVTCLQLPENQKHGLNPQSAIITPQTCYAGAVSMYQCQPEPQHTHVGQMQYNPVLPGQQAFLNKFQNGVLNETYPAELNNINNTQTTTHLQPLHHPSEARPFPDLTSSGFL
# Sequence of UniProt P03372 (P03372 whole entry, looked up): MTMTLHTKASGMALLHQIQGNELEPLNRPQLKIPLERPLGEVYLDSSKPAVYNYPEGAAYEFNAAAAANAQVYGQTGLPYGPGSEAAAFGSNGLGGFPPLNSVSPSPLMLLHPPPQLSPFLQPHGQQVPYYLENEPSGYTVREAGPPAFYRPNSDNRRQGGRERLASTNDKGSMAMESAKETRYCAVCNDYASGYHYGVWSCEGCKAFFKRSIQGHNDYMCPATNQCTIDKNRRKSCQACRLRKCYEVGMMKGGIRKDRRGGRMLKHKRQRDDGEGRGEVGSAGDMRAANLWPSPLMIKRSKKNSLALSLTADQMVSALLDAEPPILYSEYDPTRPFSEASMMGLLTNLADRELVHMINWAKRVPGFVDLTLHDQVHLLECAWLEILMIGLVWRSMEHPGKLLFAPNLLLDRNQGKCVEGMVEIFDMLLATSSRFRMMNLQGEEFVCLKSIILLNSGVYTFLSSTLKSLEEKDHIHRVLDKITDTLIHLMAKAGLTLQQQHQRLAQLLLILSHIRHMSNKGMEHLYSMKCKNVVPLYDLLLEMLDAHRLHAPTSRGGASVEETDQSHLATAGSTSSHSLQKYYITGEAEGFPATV
# Sequence of UniProt P37231 (P37231 whole entry, looked up): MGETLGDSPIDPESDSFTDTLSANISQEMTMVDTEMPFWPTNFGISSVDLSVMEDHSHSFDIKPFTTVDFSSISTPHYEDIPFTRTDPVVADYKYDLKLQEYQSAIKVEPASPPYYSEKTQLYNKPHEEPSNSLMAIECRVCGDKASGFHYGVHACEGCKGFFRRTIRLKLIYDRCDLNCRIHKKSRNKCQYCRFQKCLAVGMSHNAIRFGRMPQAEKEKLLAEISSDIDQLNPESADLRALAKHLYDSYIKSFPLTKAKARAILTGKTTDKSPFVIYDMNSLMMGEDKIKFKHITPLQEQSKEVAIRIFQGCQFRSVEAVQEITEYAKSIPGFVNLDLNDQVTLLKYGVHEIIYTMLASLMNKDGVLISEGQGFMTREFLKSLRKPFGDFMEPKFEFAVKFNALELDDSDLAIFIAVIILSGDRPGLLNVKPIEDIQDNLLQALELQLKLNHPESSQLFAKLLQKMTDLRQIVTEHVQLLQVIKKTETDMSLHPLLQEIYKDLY
# Sequence of UniProt P11511 (P11511 whole entry, looked up): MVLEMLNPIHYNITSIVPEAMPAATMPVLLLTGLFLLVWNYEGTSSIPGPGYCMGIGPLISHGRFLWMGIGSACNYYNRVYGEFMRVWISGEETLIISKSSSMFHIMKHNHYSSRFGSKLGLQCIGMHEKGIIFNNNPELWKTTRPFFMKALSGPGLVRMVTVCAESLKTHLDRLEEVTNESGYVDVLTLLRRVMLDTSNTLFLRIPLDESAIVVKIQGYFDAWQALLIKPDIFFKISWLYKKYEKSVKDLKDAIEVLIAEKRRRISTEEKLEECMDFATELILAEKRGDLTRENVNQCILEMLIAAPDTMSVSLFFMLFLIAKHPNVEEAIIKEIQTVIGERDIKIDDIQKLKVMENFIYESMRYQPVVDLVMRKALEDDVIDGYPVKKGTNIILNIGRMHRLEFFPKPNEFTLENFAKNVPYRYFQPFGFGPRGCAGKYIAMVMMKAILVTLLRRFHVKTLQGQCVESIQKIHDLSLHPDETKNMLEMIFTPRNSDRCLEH
structure (smiles),measurement,setting,value
Oc1ccccc1-c1ccccc1,Potency,[1],"inconclusive: 43.7 µM [cytotoxic, partial curve, poor fit]"
same,Potency,[2],"inactive and inconclusive: 77 µM [cytotoxic, single point]"
same,Potency,[3],"inconclusive: 13.8 µM [activator, partial curve, poor fit]"
same,"activity, negative = inhibition",[3],inconclusive: 46% [at 79.1 µM]
same,Potency,[4],"inconclusive: 6.92 µM [falling, full curve]"
same,activation,[5]; [15],inconclusive: 10.8% [phenotype inactive]
same,"activity change, negative = inhibition",[6],inconclusive: -1.13%
CCS(=O)(=O)C(C)(C)S(=O)(=O)CC,Potency,[1],"inconclusive: 5.35 µM [rising, full curve, poor fit]"
same,Potency,[7],inactive
same,Potency,[8]; [16],inactive
Cc1cc2c3c(c1)C(c1ccccc1)=N[C@@H](NC(=O)c1ccncc1)C(=O)N3CC2,Potency,[1],"inconclusive: 54.9 µM [cytotoxic, partial curve, poor fit]"
same,Potency,[7],active: 24.3 µM
same,Potency,[9],inactive
same,Potency,[10],"inconclusive: 38.9 µM [rising, partial curve]"
same,Potency,[11],"inconclusive: 48.6 µM [rising, partial curve, poor fit]"
same,Potency,[8]; [16],"inconclusive: 21.9 µM [activator, partial curve]"
CC(C)OC(=S)S,Potency,[1],active: 17.4 µM
same,Potency,[7],"inconclusive: 68.6 µM [inhibitor, single point]"
same,Potency,[9],inactive
same,Potency,[5]; [15],"inconclusive: 68.6 µM [activator, single point]"
same,Potency,Aromatase (Homo sapiens),"inconclusive: 77 µM [inhibitor, single point]"
Clc1ccccc1-c1nnc(-c2ccccc2Cl)nn1,Potency,[1],inactive
same,Potency,[3],"inconclusive: 8.63 µM [activator, partial curve, poor fit] and inconclusive: 1.73 µM [activator, full curve, poor fit]"
same,Potency,[5]; [15],active: 27.1 µM and active: 43.1 µM
Cc1ccc(N)cc1,Potency,[1],"inconclusive: 23.7 µM [cytotoxic, partial curve, poor fit]"
same,Potency,[9],active: 77 µM
O=C(O)C(F)(F)C(F)(F)C(F)(F)C(F)(F)C(F)(F)C(F)(F)C(F)(F)C(F)(F)C(F)(F)F,Potency,[1],inactive
same,Potency,[2],"inconclusive: 27.3 µM [cytotoxic, partial curve, poor fit]"
same,Potency,[3],active: 15.5 µM [inhibitor]
same,Potency,[10],inactive
same,Potency,[11],inactive
same,Potency,[12],"inconclusive: 61.1 µM [rising, partial curve, poor fit]"
same,Potency,[13],"inconclusive: 68.6 µM [activator, single point]"
CCCC[N+]1(C)[C@@H]2CC(OC(=O)[C@H](CO)c3ccccc3)C[C@H]1[C@@H]1O[C@@H]12 (stereo partly specified),Potency,[1],"inconclusive: 0.0425 µM [rising, full curve, poor fit]"
same,Potency,[7],inactive
same,Potency,[11],inactive
CN(C)c1ccc(N=Nc2ccccc2)cc1,Potency,[1],"inconclusive: 55 µM [cytotoxic, partial curve, poor fit]"
same,Potency,[7],"inconclusive: 68.7 µM [inhibitor, single point]"
same,Potency,[11],active: 61.2 µM
same,Potency,Aromatase (Homo sapiens),"inconclusive: 43.3 µM [inhibitor, partial curve, poor fit]"
same,Potency,[12],active: 54.5 µM
same,Potency,[13],active: 27.3 µM
same,Potency,[14],"inconclusive: 61.2 µM [falling, partial curve, poor fit]"
same,Potency,[8]; [16],"inconclusive: 15.5 µM [inhibitor, partial curve, poor fit]"
CCCCN(CC)c1c([N+](=O)[O-])cc(C(F)(F)F)cc1[N+](=O)[O-],Potency,[1],inactive
same,Potency,[7],"inconclusive: 62.1 µM [inhibitor, single point] and inconclusive: 68.6 µM [inhibitor, single point]"
same,activation,[8]; [16],inconclusive: -4.43% [at 78.9 µM]
same,activation,[8]; at 57 µM (top of the series),inactive: -6.85%
O=Cc1cccc(Oc2ccccc2)c1,Potency,[1],inconclusive: 55.4 µM [cytotoxic]
same,Potency,[2],"inconclusive: 13.8 µM [rising, full curve]"
same,Potency,[4],"inconclusive: 6.97 µM [fluorescent, full curve]"
same,activation,[5]; at 70.3 µM (top of the series),inconclusive: 11.4% [phenotype inactive]
same,activation,[5]; at 95 µM (top of the series),inconclusive: 22.1% [phenotype inactive]
same,Potency,[8]; [16],inactive
C[C@]12CCC(=O)C=C1CC[C@@H]1[C@@H]2CC[C@@]2(C)[C@H]1CC[C@]2(C)O,Potency,[1],"inconclusive: 24.8 µM [cytotoxic, partial curve]"
same,Potency,[7],"inconclusive: 26.6 µM [inhibitor, partial curve]"
same,Potency,[14],"inconclusive: 29.8 µM [rising, partial curve, poor fit]"
same,Potency,[8]; [16],"inconclusive: 11.1 µM [fluorescent, partial curve, poor fit]"
CCOCn1c(-c2ccc(Cl)cc2)c(C#N)c(Br)c1C(F)(F)F,Potency,[1],active: 0.871 µM
same,Potency,[7],active: 1.37 µM
same,activation,[9],inconclusive: -10.6% [phenotype inactive]
same,Potency,[3],"inconclusive: 0.155 µM [rising, full curve]"
same,Potency,[10],"inconclusive: 0.219 µM [cytotoxic, full curve]"
same,Potency,[4],"inconclusive: 0.389 µM [falling, full curve]"
same,Potency,[5]; [15],"inconclusive: 0.969 µM [inhibitor, full curve]"
same,Potency,[6],"inconclusive: 6.11 µM [falling, full curve]"
same,Potency,[11],"inconclusive: 4.33 µM [cytotoxic, full curve]"
same,Potency,[12],"inconclusive: 13.7 µM [cytotoxic, partial curve]"
same,Potency,[13],inactive
same,Potency,[14],"inconclusive: 27.3 µM [falling, partial curve]"
same,Potency,[8]; [16],inconclusive: 6.92 µM
